Measurements published in paper PMC11911400, “Mechanism of ASF1 engagement by CDAN1” (Nature Communications, 2025).
Numbering of substitutions follows the chain as printed. These are yes or no findings as the source states them, for the method shown. Binding seen in cells or lysates may run through a third protein. Some entries that bind do so weakly or less than the wild type.

What was measured:
[1] = target: T1, Strep-CDAN1 HMHA1* HMHA2* (both H3 mimic helices mutated) (human) (UniProt Q8IWY9); assay: pull-down; Strep-Tactin pulldown of transiently transfected ST-CDAN1 variants from Flp-In 293 T-REx lysates; endogenous ASF1A, ASF1B and CDIN1 detected by immunoblotting; IP buffer with 1% Triton X-100, 1 hr at 4 °C
T1 sequence: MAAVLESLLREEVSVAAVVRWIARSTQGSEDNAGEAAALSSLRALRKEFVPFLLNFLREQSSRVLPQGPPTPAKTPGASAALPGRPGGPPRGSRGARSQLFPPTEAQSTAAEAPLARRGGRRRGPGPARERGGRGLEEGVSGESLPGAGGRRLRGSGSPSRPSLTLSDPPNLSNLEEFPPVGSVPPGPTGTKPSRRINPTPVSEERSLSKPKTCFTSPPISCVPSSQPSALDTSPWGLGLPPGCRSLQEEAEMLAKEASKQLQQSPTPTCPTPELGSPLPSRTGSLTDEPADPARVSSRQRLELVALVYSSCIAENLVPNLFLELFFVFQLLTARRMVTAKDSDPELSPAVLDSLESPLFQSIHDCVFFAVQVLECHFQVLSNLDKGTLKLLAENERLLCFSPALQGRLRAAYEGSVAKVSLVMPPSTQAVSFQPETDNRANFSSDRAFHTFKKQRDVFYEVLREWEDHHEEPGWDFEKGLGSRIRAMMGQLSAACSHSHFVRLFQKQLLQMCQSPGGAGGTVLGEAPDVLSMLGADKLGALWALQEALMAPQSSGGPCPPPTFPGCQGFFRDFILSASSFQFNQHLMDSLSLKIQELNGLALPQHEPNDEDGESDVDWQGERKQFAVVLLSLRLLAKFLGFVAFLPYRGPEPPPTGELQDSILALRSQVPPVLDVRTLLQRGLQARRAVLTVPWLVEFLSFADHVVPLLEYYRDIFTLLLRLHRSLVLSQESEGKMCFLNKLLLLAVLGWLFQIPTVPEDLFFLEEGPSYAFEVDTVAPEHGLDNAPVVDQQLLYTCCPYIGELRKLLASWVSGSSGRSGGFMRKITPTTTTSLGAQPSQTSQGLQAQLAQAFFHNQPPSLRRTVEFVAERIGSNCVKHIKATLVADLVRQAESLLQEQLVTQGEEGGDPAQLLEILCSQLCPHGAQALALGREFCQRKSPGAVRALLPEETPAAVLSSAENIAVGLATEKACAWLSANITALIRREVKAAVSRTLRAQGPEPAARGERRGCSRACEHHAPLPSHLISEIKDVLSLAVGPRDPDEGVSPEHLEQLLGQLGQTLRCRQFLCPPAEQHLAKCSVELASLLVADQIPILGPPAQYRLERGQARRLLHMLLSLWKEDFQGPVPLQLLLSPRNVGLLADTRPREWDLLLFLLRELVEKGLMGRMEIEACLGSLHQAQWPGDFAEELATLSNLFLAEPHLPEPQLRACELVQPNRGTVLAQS

[2] = target: T2, Strep-CDAN1 HMHA1* BDA1* HMHA2* (three elements mutated) (human) (UniProt Q8IWY9); assay: as above
T2 sequence: T1 sequence with M824A, R825A, K826A

B1: FLAG-tagged CDIN1 (F-CDIN1) (natural protein, UniProt Q9Y2V0 1-281, looked up)
chain: MILTKAQYDEIAQCLVSVPPTRQSLRKLKQRFPSQSQATLLSIFSQEYQKHIKRTHAKHHTSEAIESYYQRYLNGVVKNGAAPVLLDLANEVDYAPSLMARLILERFLQEHEETPPSKSIINSMLRDPSQIPDGVLANQVYQCIVNDCCYGPLVDCIKHAIGHEHEVLLRDLLLEKNLSFLDEDQLRAKGYDKTPDFILQVPVAVEGHIIHWIESKASFGDECSHHAYLHDQFWSYWNRFGPGLVIYWYGFIQELDCNRERGILLKACFPTNIVTLCHSIA
notes: C15orf41); cDNA synthesized by IDT; source: Expi293, transiently transfected, in lysate and purified in complexes (anti-FLAG, Strep-Tactin); not shown: 3xFLAG, N-terminal, kept
- binding [1]: binds
- binding [2]: binds
